Measured values as given in PubChem BioAssay AID1508642 (National Center for Advancing Translational Sciences (NCATS), 2021).
The campaign covered roughly 43,000 compounds. About 200 (0.47%) were called active. Another 12% or so got no clear call; they are omitted. The call rests on the fitted dose curve; in most records, active means well fitted cell-killing curve with a large enough effect; inconclusive means small, poorly fitted or top-dose-only effect, or effect the other way; inactive means flat fitted curve, though single readings scatter. This is one part of the list.

Test: Cell viability qHTS assay in S16 Pmp22-F2sN cells; further: nearly all actives have a fitted effect of over 65% in size
Conditions: S16 Pmp22-F2sN Schwann cells (luciferase reporters placed in the Pmp22 gene) viability, CellTiter-Glo, 24 h; series mostly up to 57.5 µM; activity change, negative = cytotoxicity: at the top concentration
Procedure, shortened: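 S16 Schwann cells carrying the Pmp22-F2sN reporter, seeded in 1536-well format, were exposed to library compounds for 24 h at 37C. Viability was read as CellTiter-Glo luminescence after 15 min at room temperature.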
On the % scale 0 is the no-effect control and ±100 the full control effect.

Compound | activity change, negative = cytotoxicity
Cc1c(Cl)cccc1Nc1nc2ccc(C(=O)c3ccccc3)cc2n2cnnc12 | inactive: 0.649%
Cc1ccc(CNC(=O)CN2C(=O)C3(SCC(=O)N3c3ccc(F)cc3)c3ccccc32)cc1 (stereo not drawn) | inactive: 0.938%
Cc1ccc(NC(=O)Cn2c(-c3cncs3)nc3ccccc32)c(Br)c1 | inactive: 0.848%
CCCCCn1c(CCNC(=O)c2cccc(C)c2)nc2ccccc21 | inactive: -6.7%
Cc1ccc(/C=C/c2onc(C)c2S(=O)(=O)N2CCC(C(=O)Nc3ccc(Br)c(C)c3)CC2)cc1 | inactive: 18.4%
CCC(CC)C(=O)Nc1cc(-c2ccccc2F)nn1-c1ccccc1 | inactive: 10.7%
CNS(=O)(=O)c1cn(CC(=O)Nc2ccc(OC)cc2OC)cc1S(=O)(=O)NC | inactive: 13.2%
NS(=O)(=O)c1ccc(NC(=O)CSc2ccc3ccccc3n2)cc1 | inactive: 3.18%
Cc1ccc(S(=O)(=O)c2cn(CC(=O)Nc3cccc(C)c3)c3cc4c(cc3c2=O)OCO4)cc1 | inactive: 3.1%
CC1CCC(C(=O)NC(C(=O)OCC(=O)c2ccc(Br)cc2)C(C)C)CC1 (stereo not drawn) | inactive: -0.111%
Cc1ccc(CNC(=O)c2nnc(Cc3ccc(Cl)cc3)o2)cc1 | inactive: -1.71%
CN(C(=O)c1ccc2c(Cl)c3c(nc2c1)CCC3)c1ccccc1F | inactive: 5.25%
CCN(CC)C(=O)Cn1c(=O)n(-c2ccccc2)c(=O)c2c3c(sc21)CCC3 | inactive: 13.1%
Cc1ccccc1/C=C(\C#N)c1nc(-c2ccc(Cl)cc2)cs1 | inactive: 24.5%
Cc1csc2nc(-c3ccc(NS(=O)(=O)c4cc(F)ccc4F)cc3)cn12 | inactive: 1.24%
CCC(C)NC(=O)c1nn(-c2ccc(C)cc2)nc1CO (stereo not drawn) | inactive: 12%
COc1ccc(OC(=O)c2nc(SCc3ccccc3F)ncc2Cl)cc1 | inactive: -0.991%
Cc1ccc(NC(=O)Cn2c(=O)n(Cc3ccco3)c(=O)c3oc4ccccc4c32)cc1C | inactive: -1.66%
Cc1cccc(CNC(=O)C2CCC(CNS(=O)(=O)c3ccc4c(c3)CCCC(=O)N4)CC2)c1 (stereo not drawn) | inactive: -24.1%
O=C(Nc1ccc2nc(SCC(=O)N3CCOCC3)sc2c1)c1cccc(Br)c1 | inactive: -13.4%
Cc1cccc(CN2C(=O)c3ccccc3Sc3ccc(C(=O)NC4CCCCC4)cc32)c1 | inactive: -6.13%
CCC(=O)C1=C(c2ccc(F)cc2)N(C(=O)CC)n2c(nnc2-c2ccc(OC)cc2)S1 | inactive: -0.322%
O=C(CSc1nccn1-c1cccc(Cl)c1)Nc1ccc2c(c1)OCO2 | inactive: 2.01%
Cn1c(=O)oc2cc(S(=O)(=O)CCC(=O)N3CCN(c4ccccc4F)CC3)ccc21 | inactive: -10.1%

Compound | activity change, negative = cytotoxicity
O=C(CCn1c(=O)c2cccn2c2cccnc21)N1CCN(c2ccccc2)CC1 | inactive: 2.17%
CCc1nn(CC(=O)N2CCN(c3ccc(OC)cc3)CC2)c(=O)c2cc3sccc3n12 | inactive: -16.3%
O=C(CSc1nc(=O)[nH]c2c1CCC2)NCc1ccccc1Cl | inactive: 16.7%
Cc1nc2ccccc2c(=O)n1-c1ccc(NC(=O)c2ccccc2[N+](=O)[O-])cc1 | inactive: -2.84%
CCn1c(SCC(=O)Nc2ccccc2C(=O)OC)nc2ccsc2c1=O | inactive: 1.78%
Cc1ccc(-c2cc(C(=O)Oc3ccc(C#N)cc3)no2)cc1 | inactive: -0.384%
CCC(=O)NNc1ncnc2c1cnn2-c1ccc(C)c(Cl)c1 | inactive: 2.35%
COc1ccc(C2CC(=O)Nc3c2c(=O)[nH]c2nc4ccccc4n32)cc1 (stereo not drawn) | inactive: 2.4%
CCOc1cc(-c2ccc(OC(=O)c3ccccc3Cl)c(OC)c2)cc(=O)c2c(C)oc(C)c12 | inactive: 1.06%
Cc1cccc(C)c1NC(=O)c1ccc2c(c1)nnn2C1CCCC1 | inactive: -15.2%
COc1ccc(-c2nn3c(=O)cc(CN4CCN(C(=O)/C=C/c5ccccc5)CC4)nc3s2)cc1 | inactive: -15.9%
CC(=O)c1ccc(N2CCN(S(=O)(=O)c3ccc(-c4coc(C)n4)cc3)CC2)cc1 | inactive: -3.48%
CCn1cc(C(=O)Nc2cccc(Cl)c2)c2cc(OC)c(OC)cc2c1=O | inactive: -29.4%
Cc1ccccc1COC(=O)c1nn(-c2ccccc2)nc1N | inactive: 4.49%
COc1ccccc1N1CCN(C(=O)Cn2c(=O)n3nc(-c4cccc(F)c4)nc3c3ccccc32)CC1 | inactive: 1.03%
CCCCN(CC)CCNC(=O)C1CCN(S(=O)(=O)c2cccc3nsnc23)CC1 | inactive: 2.31%
Cc1nn(CC(=O)NC2CCC(C)CC2)c(=O)c2c1sc1ccccc12 (stereo not drawn) | inactive: 4.09%
Cc1ccc2oc(-c3ccc(NC(=O)CCC(=O)O)cc3)nc2c1 | inactive: 5.44%
Cc1ccc(NC(=O)CCc2c(C)nc3c(-c4ccc(F)cc4)c(C)nn3c2C)cc1F | inactive: 0.576%
COc1cc(NC(=O)CN2CCN(c3ccc(F)cc3)CC2)cc(OC)c1 | inactive: 0.801%
CCOc1ccc(NC(=O)c2sc3nc4n(c(=O)c3c2C)CCC4)cc1 | inactive: 0.338%
COC(=O)N1CCCc2cc(S(=O)(=O)NCc3ccccc3)ccc21 | inactive: 0.767%
Cc1ccc(C)c(Nc2cc(C(=O)NC3CCCC3)c3ccccc3n2)c1 | inactive: 7%
COc1ccc(NC(=O)CC2C(=O)N(c3ccc(OC)cc3)C(=O)N2CCC2=CCCCC2)cc1 (stereo not drawn) | inactive: -2.18%
